Source: the supplement of paper PMC3334620
Whole data set: some 33,000 sequences, median “E-score (-0.5 to 0.5)” near -0.035, cut for the highest 2% near 0.34. The list shows a part of the results.

molecular target: T1, Mot3 (UniProt P54785); assay: PBM E-score (8-mer binding enrichment) (E-score (-0.5 to 0.5)); higher = stronger / more preferred TF binding; most listed sequences are background and not binding sites; conditions: protein concentration: 200 nM; construct: GST-full length
T1 sequence: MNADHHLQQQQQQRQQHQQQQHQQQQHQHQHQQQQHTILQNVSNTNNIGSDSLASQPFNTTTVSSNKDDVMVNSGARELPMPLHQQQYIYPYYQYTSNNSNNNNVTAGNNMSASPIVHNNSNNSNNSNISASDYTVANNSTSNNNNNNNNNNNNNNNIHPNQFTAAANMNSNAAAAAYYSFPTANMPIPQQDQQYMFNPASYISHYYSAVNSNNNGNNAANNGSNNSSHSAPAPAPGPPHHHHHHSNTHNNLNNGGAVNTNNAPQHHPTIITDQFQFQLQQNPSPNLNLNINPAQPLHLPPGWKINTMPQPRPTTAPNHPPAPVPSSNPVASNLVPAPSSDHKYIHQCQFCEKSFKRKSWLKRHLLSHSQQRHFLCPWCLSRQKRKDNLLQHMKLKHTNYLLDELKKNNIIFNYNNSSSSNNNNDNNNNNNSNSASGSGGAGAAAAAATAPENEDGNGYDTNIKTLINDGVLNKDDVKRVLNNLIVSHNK
In short: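 E-scores (a modified Wilcoxon-Mann-Whitney statistic) were assigned by the Universal PBM Analysis Suite to every ungapped eight-base word pooled with its reverse complement. The input came from universal all-10-mer Agilent arrays made double-stranded by primer extension and probed with GST-tagged yeast transcription factors at about 100-200 nM. Fluorescent anti-GST detected bound protein, and masliner normalised the scans.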

Sequence	PBM E-score
CAGAATGC	-0.195
CCTCTCCA	-0.126
TCACACCA	-0.0793
GACGACTA	0.112
ACACTATC	-0.121
CGTAGTGC	-0.09
CCGAGCAA	-0.194
CAGATAGA	-0.27
GGAAGCCA	-0.322
CCGTGGTC	-0.151
CCGCACCA	-0.255
GATATGCC	-0.169
CGAGAACA	-0.0594
CAATTTAC	0.216
GTCTTAAC	0.208
CCCCAGTA	-0.171
CCGGGAGA	-0.209
CCAAGAGC	-0.316
ATAGGCTC	0.207
CCGAAACG	-0.117
CGGGACAA	-0.123
AATTACAT	0.419
GGTCACTA	-0.14
ATTTGAGG	-0.0694
GTTGGTGA	0.00088

Sequence	PBM E-score
ACATGAAA	0.265
CATATGGC	-0.2
CAGATGGC	-0.145
GATGTAGA	0.195
ATTCGGAC	0.0425
GGCACCAA	0.315
AAAGCTCG	-0.117
GTAAATGA	0.247
GGTCTACA	0.248
ATCGGTCG	-0.126
AACGCAAC	0.168
ACTAATAT	0.0372
AATTAAGG	0.149
CATTCGAG	-0.0712
TCTCGGAA	-0.188
CGTGCAGA	-0.15
CCGTGTGA	0.277
AGCCAAAG	-0.13
AATACGCT	0.188
AATTCAGT	-0.0706
AAGAACCA	-0.134
CAGGGAAC	-0.0529
GGCTCCGA	-0.172
TGCGACCA	-0.168
AAATGTGC	0.203

Sequence	PBM E-score
TAGGTGCA	0.0207
ACACAGCT	0.287
CCAACAAA	0.219
TCATCACA	0.11
AACGAATT	0.0377
GAAGATTA	0.067
GAAGAACA	0.285
ACAGGAAG	0.0333
AAACCTAA	0.0894
ATTCGGTA	0.111
ACGCACGG	0.0438
GACTCATC	-0.209
CAGGTGCC	0.314
CAACTTGA	0.206
ATGGGGGA	-0.245
ACTGAGCA	-0.0451
AAAGAAGT	0.0597
AGATGGAC	-0.214
GTCGATAA	0.024
AATGCGCT	-0.0472
ACGAATGG	-0.0484
CGCAACCA	-0.0278
CAACGCTA	-0.0278
CTTTGGGC	-0.14
GTCAAGGA	0.16

Sequence	PBM E-score
ATAGCTAG	-0.0462
CGAGAGGA	-0.104
GCTAACCC	-0.148
CCCAGCAA	-0.0854
AGTTGACC	-0.143
CCAGAGAC	-0.171
GATTTCTA	-0.132
CGACGGTA	-0.0139
CATTGCAG	-0.105
AGCTACCA	-0.133
AAGTTCAA	0.00807
AATCTCCC	-0.34
GAGCCAAA	-0.2
TCAACTCA	-0.0911
AATCAGGT	0.153
GATTTGCC	0.203
CTATAAAG	-0.124
AAAGCAAA	0.216
CACCCATC	-0.143
GACCGTGA	-0.0289
AAACAGGT	0.232
CAATTAAG	0.114
CTGTGGCC	-0.0368
AGCTGTTC	-0.0345
GCCAGGAC	-0.233

Sequence	PBM E-score
GGAAGAAA	-0.00437
AAGAAGGG	-0.174
TAGGGACA	-0.164
AAACCTAG	0.0425
GCAGCCCA	-0.183
ATATAACC	-0.0921
GCCGCACA	-0.203
CCCTTTGA	-0.0997
ATGCAAGG	-0.116
AGTTTGGA	0.118
AAAATATA	0.0383
ATTAGAAA	-0.0293
CACCGGGA	-0.201
AGTATACT	-0.0295
CACATAAG	0.0691
GCAAAGGC	0.184
GGAAGACC	-0.207
AACTGATT	-0.0887
AGCCAACT	-0.0761
GAGCGTAA	0.197
ACGCCGAT	0.0442
AGCGTGCG	-0.185
CCATATAA	0.0352
CACAACCC	-0.196
GAAGAGAC	-0.0842

Sequence	PBM E-score
AACAGCTA	-0.052
CCGCCCTA	-0.123
AATACGAA	0.0904
GTAGAAGA	-0.00994
CATTTAGC	0.156
CTCCGTCA	-0.13
AGTGGGTC	-0.179
AGCGCAAG	0.0235
ACGTAACG	0.0865
CTAAGTAA	0.168
CCTGGCCC	-0.253
CTCAATCA	-0.0257
AGGTTGCC	0.303
AATCTGCT	-0.188
AGGCACCT	0.491
AAAGTTGG	0.179
GACGAGTC	-0.158
CCGTTACG	-0.0265
AGCGTAAC	0.0483
CGCTGCGA	-0.109
CTTTCCCA	-0.0799
ACGCTCTA	0.0713
AAAATGAT	0.0691
TAATGATA	0.141
GGTGCCAC	-0.168

Sequence	PBM E-score
GCTAATAA	0.0214
GATGATAC	-0.062
TACATACA	0.355
ATAAACGG	0.0165
AGAAAAGG	0.0803
AATCGTGA	-0.105
CCTATCCG	-0.113
CGGCGACG	-0.18
CGCGTTAA	0.368
ACCGTAGG	-0.0698
CACCCCTG	-0.171
GCCCGCGC	-0.25
AATCGTCA	0.0537
CAGGCAGG	0.306
TCATCGAA	-0.0178
AGTATGAT	0.0049
CCGATCGC	-0.18
AGAGAATC	-0.0691
CGAACACA	0.0814
GGGAGATA	-0.0973
GGATTGCA	-0.167
AAAGGTGA	-0.076
